Laboratory results published in the supplement of paper PMC3334620.
Over roughly 33,000 sequences, “E-score (-0.5 to 0.5)” has its median near -0.012; the highest 2% begin near 0.29. Some of the results follow.

What follows are sequences tested against T1, Ybr033w (UniProt P38073) (assay: PBM E-score (8-mer binding enrichment) (E-score (-0.5 to 0.5)); higher = stronger / more preferred TF binding; most listed sequences are background and not binding sites). Conditions: protein concentration: 200 nM; construct: GST-full length.
T1 sequence: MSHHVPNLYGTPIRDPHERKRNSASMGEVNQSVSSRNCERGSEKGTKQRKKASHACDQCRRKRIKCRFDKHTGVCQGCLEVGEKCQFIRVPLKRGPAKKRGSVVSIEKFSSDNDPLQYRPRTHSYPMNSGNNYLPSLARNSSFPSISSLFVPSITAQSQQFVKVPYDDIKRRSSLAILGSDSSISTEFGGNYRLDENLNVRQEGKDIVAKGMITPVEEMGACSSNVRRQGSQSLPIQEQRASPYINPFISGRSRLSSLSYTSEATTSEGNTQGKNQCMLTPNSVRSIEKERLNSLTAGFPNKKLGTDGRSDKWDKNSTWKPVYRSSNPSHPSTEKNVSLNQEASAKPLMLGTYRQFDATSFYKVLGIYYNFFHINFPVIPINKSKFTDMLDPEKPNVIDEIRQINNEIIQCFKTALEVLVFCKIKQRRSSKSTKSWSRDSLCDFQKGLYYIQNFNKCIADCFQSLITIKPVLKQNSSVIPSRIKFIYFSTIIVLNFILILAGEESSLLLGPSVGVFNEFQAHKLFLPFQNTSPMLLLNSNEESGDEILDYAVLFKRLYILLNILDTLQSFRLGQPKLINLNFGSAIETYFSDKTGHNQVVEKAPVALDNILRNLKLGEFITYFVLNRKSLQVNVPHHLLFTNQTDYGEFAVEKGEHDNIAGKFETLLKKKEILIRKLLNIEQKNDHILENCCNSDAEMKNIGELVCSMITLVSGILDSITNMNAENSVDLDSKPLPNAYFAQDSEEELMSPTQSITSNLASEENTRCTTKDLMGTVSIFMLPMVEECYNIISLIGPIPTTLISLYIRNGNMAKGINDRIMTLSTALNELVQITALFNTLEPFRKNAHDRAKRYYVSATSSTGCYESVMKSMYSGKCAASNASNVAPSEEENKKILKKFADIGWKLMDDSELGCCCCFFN
In short: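 GST-tagged yeast TFs (full-length or DNA-binding domain) were made by PURExpress in vitro transcription/translation and applied at about 100-200 nM to universal all-10-mer Agilent arrays. The arrays were made double-stranded by primer extension, on fresh or once-stripped slides. Bound protein was detected with fluorescent anti-GST, and scans were normalised with masliner. Each ungapped eight-base word, pooled with its reverse complement, received an E-score (modified Wilcoxon-Mann-Whitney statistic) from the Universal PBM Analysis Suite.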

Row | Sequence | PBM E-score
1 | ACAACGTA | 0.0205
2 | CCTTATTC | -0.146
3 | ACCACATG | 0.0622
4 | CCGGAACA | 0.447
5 | GCTCTGAC | -0.193
6 | GGCCCAAC | -0.219
7 | TAAATGAA | 0.143
8 | ACCCCGTC | -0.298
9 | ACTTAGGC | -0.218
10 | CTGCCAAC | -0.136
11 | AGTTAAAC | 0.11
12 | AACCATGC | 0.0112
13 | AAAGTCAA | 0.199
14 | ACGGCCAG | -0.14
15 | CCGGTTAC | -0.143
16 | CCGAGCCG | 0.00927
17 | ATCAACCA | 0.148
18 | GGTCCTAC | -0.226
19 | ATGATCAA | 0.166
20 | ATTGCCCG | -0.116
21 | ATTCTTGA | 0.17
22 | TATTGAAA | 0.264
23 | GCTGATCA | 0.0605
24 | CATGGCAG | -0.0545
25 | AGCGCTGA | -0.0432

Row | Sequence | PBM E-score
26 | CCGTTCTA | 0.135
27 | CCGCAACA | -0.0261
28 | CGCATCAG | -0.0368
29 | ATATCACC | 0.272
30 | ACGGGTCG | -0.0641
31 | TGAAGGAA | 0.211
32 | CGCGCCAA | 0.0577
33 | ATTTAATG | 0.244
34 | AGAGCCGC | -0.162
35 | ACGAAGCT | 0.142
36 | ATGTAGCC | -0.24
37 | ACATTGGA | -0.0326
38 | AAGCAACG | 0.0559
39 | ATGACTGA | 0.0565
40 | AACCTAGA | 0.00973
41 | GAACCGCA | 0.0878
42 | AATGCTAC | 0.217
43 | CTAGTGGA | -0.011
44 | GTCTCTTA | 0.121
45 | CGCATTCA | 0.158
46 | GCGCCCAC | -0.166
47 | AGAGGGCA | -0.242
48 | ACGAAACT | 0.0994
49 | CGCAGCGC | -0.211
50 | ATATACGA | -0.0313

Row | Sequence | PBM E-score
51 | ATTCGTCC | 0.182
52 | AAAGTGAG | 0.0784
53 | ACATGTCT | -0.0446
54 | ATAGCGAC | -0.115
55 | AAGTTGGC | -0.0193
56 | ATCAGGGA | -0.155
57 | GCTGTTCC | -0.207
58 | ATGCTATG | 0.159
59 | CCGGAGAA | 0.271
60 | GTCCGTAA | -0.036
61 | ATCTAGTA | 0.246
62 | GCCATCCA | -0.168
63 | CGTGTGAC | -0.0594
64 | GCACTCGA | -0.0311
65 | CATAAGCG | -0.0755
66 | ACCAGTTC | -0.139
67 | ACTTATTA | 0.176
68 | CGAATAGA | -0.0851
69 | CCTTGGCG | -0.278
70 | GAGCTTAA | 0.108
71 | AGGAGTAA | 0.104
72 | CCGGTACG | -0.229
73 | CTTCCACC | -0.158
74 | GATTCTTA | 0.248
75 | AATGTTGA | -0.00763

Row | Sequence | PBM E-score
76 | TGATAGAA | 0.00598
77 | AAAGGCTT | -0.00332
78 | AAGTGCTG | 0.0349
79 | AGGTCTAC | 0.0604
80 | CGCTATCC | -0.0504
81 | GTATATTA | 0.257
82 | ACTCATTC | 0.245
83 | TCTCCAAA | 0.053
84 | GATTCGTA | 0.127
85 | CTGTCCTA | -0.0252
86 | AACAACCC | 0.0694
87 | ATTCGTGC | 0.186
88 | CATCGAAG | 0.0388
89 | AATTCTGG | 0.111
90 | CGATTGCA | 0.109
91 | ACTCTAAG | -0.157
92 | CCCCTTAG | -0.364
93 | ACTAGTCG | -0.166
94 | ATCCCGTA | 0.19
95 | AGGAGCTA | -0.178
96 | AGTCCAGA | -0.0236
97 | CGGAGATA | 0.123
98 | AAGGGATC | 0.0741
99 | CAGCACCG | -0.319
100 | ACAAATAC | 0.234

Row | Sequence | PBM E-score
101 | CGTCTCCA | 0.0883
102 | ATCGGGAC | -0.169
103 | TAGGGTGA | 0.113
104 | TCCTCTAA | 0.0386
105 | TAACCCGA | -0.0421
106 | TACTACGA | 0.212
107 | CCAGACAA | -0.207
108 | CTACCCTA | -0.106
109 | CCGAGTAA | 0.0976
110 | CTGAAGAC | -0.157
111 | GACTGCAC | -0.221
112 | ACGACTTA | -0.0969
113 | GGTCACAC | -0.191
114 | ACGGCCTC | -0.177
115 | ACTTGCTG | 0.0666
116 | GGCATGCA | -0.176
117 | CTCATTAC | 0.169
118 | TCCGCCAA | 0.00403
119 | GTTTACAA | 0.243
120 | ATGGACCC | -0.193
121 | ATTATACG | 0.242
122 | AACCCTAC | -0.159
123 | GGCTCGTA | -0.135
124 | CCCACCCC | -0.0296
125 | AGCCTCTA | -0.114

Row | Sequence | PBM E-score
126 | CAGAGTGC | -0.126
127 | AGATATTC | 0.267
128 | AATAAACG | 0.163
129 | ACATCTTG | 0.00925
130 | AGGAGCAC | -0.115
131 | AGGCCAAG | -0.273
132 | CATGTGTA | 0.0292
133 | CGAATGCA | -0.00613
134 | AACAGGGA | 0.191
135 | CCGCGTCG | -0.0474
136 | AAGAGGGG | -0.226
137 | GCTTTAAA | -0.00436
138 | GATAATAC | 0.171
139 | ACGCAGGA | -0.0118
140 | AATGTAAG | 0.288
141 | ATACATAT | 0.261
142 | ACCCAATA | -0.0228
143 | ATAACATG | 0.184
144 | CAACACAA | 0.0806
145 | AGCGCTGC | -0.219
146 | AATGGGCT | -0.12
147 | TGGGGTAA | 0.0198
148 | ACGCCCTG | -0.16
149 | CATGCGCA | 0.0557
150 | GCGCGGCC | -0.0352

Row | Sequence | PBM E-score
151 | AACCGGAA | 0.157
152 | CCGACGCA | -0.226
153 | ACGAAATC | 0.149
154 | AATTCAAT | 0.173
155 | ATCAGCAC | 0.109
156 | CAATCGCC | 0.00795
157 | AGCGATCG | -0.00462
158 | GAACATGC | -0.076
159 | AGTCGAAC | 0.0638
160 | CGCAAATA | 0.208
161 | CCCTCACC | -0.265
162 | GATTTCAC | 0.0763
163 | GGGCGTCA | -0.075
164 | GCCGCCAA | -0.283
165 | GCATCCAA | -0.0905
166 | CGACTACC | -0.107
167 | ATGCGACC | -0.00341
168 | ATGGTTAA | 0.0444
169 | CTTGTTAC | 0.0366
170 | AAGGCCTT | -0.326
171 | CCGTCGCA | -0.00392
172 | CAATACGG | 0.023
